In experiment [1] the target is T1, 筛选及检测用人PD-1抗原 (human PD-1 extracellular domain with His tag, Sino Biological Cat.10377-H08H) (human, UniProt Q15116 in part).
T1 construct: Bought product; the entry holds the extracellular domain and the His tag; also called PD-1蛋白
Kind of experiment: SPR Biacore 8K, antibody captured by anti-human IgG Fc on CM5, PD-1 (SEQ ID NO: 3) as analyte. (In SPR one partner is held on a chip, and binding of the other changes the refractive index at the surface.)

For experiment [2], the target named is T1, 筛选及检测用人PD-1抗原 (human PD-1 extracellular …). Description: ELISA, antibody coated, His-tagged PD-1 titrated, anti-His-HRP. (ELISA stands for enzyme-linked immunosorbent assay.)
The target of experiment [3] is T2, 猴PD-1 (Sino Biological Cat.90311-C08H) (monkey (猴)).
T2 construct: also called monkey PD-1
Described as above.

Experiment [4] addresses T1, 筛选及检测用人PD-1抗原 (human PD-1 extracellular …). Description: SPR Biacore T200, antibody captured on protein A CM5 chip, PD-1-His as analyte.
Experiment [5] concerns the target PD-1 on JURKAT-PD-1 cells (Promega) (human, UniProt Q15116 25-288). Description: cell-based or functional assay.
In experiment [6] the target is T3, 人PD-1全长蛋白 on CHO-PD-1 cells (human, UniProt Q15116 25-288).
T3 construct: also called 细胞表面抗原PD-1; human PD-1
Description: flow cytometry on CHO-PD-1 cells, FITC anti-human IgG.

Residue numbers refer to the chain shown, from its start.

B1: 61#_hu_1 (Fc fusion)
chain: EVQLVESGGGLVQPGGSLRLSCAASGYTYSSLCMGWFRQAPGKGLEGVSTIYTGDSSTYYADSVKGRFTISRDNSKNTLYLQMNSLRAEDTAVYYCAAAYGRRWCERLYMYDSWGQGTLVTVSS[omitted - human IgG1 Fc]
notes: not shown: linker between VHH and Fc
What is called Kd is the concentration at which binding is half-saturated. The koff is a measure of how fast the partners let go of each other. For orientation: kon means the second-order rate constant of association. In experiment [1], B1 returned a Kd of 20.4 nM, a koff of 0.00461 s⁻¹ and a kon of 226000 M⁻¹ s⁻¹.

B2: 107# (Fc fusion)
chain: DVQLVGSGGGSVQVGGSLRLSCAASGYTGNRRYCMGWFRQAPGNEREGVAVINTGANTTYYADSVKGRFTISQDNAKNTVYLQMNSLKPEDTAMYYCGVGWRALCEVNGYVYDSWGQGTQVTVSS[omitted - human IgG1 Fc]
notes: also called 107#-IgG1; not shown: linker between VHH and Fc
Broadly, the EC50 is the concentration needed to bring the measured effect to its halfway point. Consider B2, for which the EC50 in experiment [2] came to 3.14 nM. Moreover, the EC50 in experiment [3] was 2.9 nM. In experiment [1], this molecule showed an equilibrium dissociation constant (Kd) of 8.1 nM, a koff of 0.000782 s⁻¹ and a kon of 96500 M⁻¹ s⁻¹.

B3: 7# (Fc fusion)
chain: HVQLVESGGGSVQAGGSLRLACASSRNTNRYNFMTWFRQAPGKEREGVAAIYTGFGNTYYADSVKGRFTISQDNAKNTVYLQMNSLKPEDTAMYHCAAALRDGSWSSQNYDYWGQGTQVTVSS[omitted - human IgG1 Fc]
notes: also called 7#-IgG1; not shown: linker between VHH and Fc
Molecule B3 yielded an EC50 in experiment [2] of 1.86 nM. In experiment [3], this molecule registered an EC50 of 2.2 nM. In experiment [1], this molecule displayed a Kd of 2.06 nM, a koff of 0.000281 s⁻¹ and a kon of 136000 M⁻¹ s⁻¹.

B4: 32# (Fc fusion)
chain: QVQLVESGGGSVQAGGSLRLSCAVSGFRYSPILMGWFRQGPGKDREGVASIDSVGATDYADSVKGRFTISRDNAENTLFLQMNSLKPEDTGMYYCAAALMRTYLPLQPRQYDFWGQGTLVTVSS[omitted - human IgG1 Fc]
notes: also called 32#-IgG1; not shown: linker between VHH and Fc
Molecule B4 displayed an EC50 in experiment [2] of 1.99 nM. The same molecule returned an EC50 in experiment [3] of 4.8 nM. Further, in experiment [1], the Kd is 6.35 nM, the dissociation rate constant (koff) was 0.00207 s⁻¹ and the kon was 325000 M⁻¹ s⁻¹.

B5: 32#_hu_1 (Fc fusion)
chain: EVQLVESGGGLVQPGGSLRLSCAASGFRYSPILMGWFRQAPGKGLEGVSSIDSVGATDYADSVKGRFTISRDNSKNTLYLQMNSLRAEDTAVYYCAAALMRTYLPLQPRQYDFWGQGTLVTVSS[omitted - human IgG1 Fc]
notes: as for B1
On to B5, for which it took 4.08 nM to reach a half-maximal effect in experiment [2] (EC50). In experiment [3], this molecule returned an EC50 of 6.2 nM. For the same molecule, in experiment [1], the Kd is 16.3 nM, the koff is 0.00291 s⁻¹ and the kon turned out to be 179000 M⁻¹ s⁻¹.

B6: 32#_hu_5 (Fc fusion)
chain: B5 chain with A24V
notes: as for B1
In the case of B6, in experiment [1], the dissociation constant (Kd) came to 19.6 nM, the koff was determined as 0.00319 s⁻¹ and the kon was found to be 162000 M⁻¹ s⁻¹.

B7: 32#_hu_2 (Fc fusion)
chain: B5 chain with L45R
notes: as for B1
Molecule B7 returned an EC50 in experiment [2] of 3.43 nM. Moreover, the EC50 in experiment [3] worked out at 2.3 nM. In experiment [1], this molecule had a Kd of 9.36 nM, a koff of 0.00156 s⁻¹ and a kon of 167000 M⁻¹ s⁻¹.

B8: 32#_hu_3 (Fc fusion)
chain: B5 chain with G44D, L45R
notes: also called 32#_hu_3-hIgG1; not shown: linker between VHH and Fc
B8 came in with an EC50 in experiment [2] of 2.98 nM. In experiment [3], this molecule came in with an EC50 of 1.2 nM. In experiment [1], this molecule displayed a Kd of 9.11 nM, a koff of 0.00201 s⁻¹ and a kon of 220000 M⁻¹ s⁻¹.

B9: 32#_hu_4 (Fc fusion)
chain: B5 chain with S49A
notes: as for B1
Take B9: in experiment [1], the Kd worked out at 20.2 nM, the koff was 0.00353 s⁻¹ and the kon stood at 175000 M⁻¹ s⁻¹.

B10: 7#_hu_4_hIgG4 (Fc fusion)
chain: EVQLVESGGGLVQPGGSLRLSCAASRNTNRYNFMTWFRQAPGKEREGVSAIYTGFGNTYYADSVKGRFTISQDNSKNTLYLQMNSLRAEDTAVYYCAAALRDGSWSSQNYDYWGQGTLVTVSS[omitted - human IgG4 Fc with S228P (EU numbers)]
notes: Expressed in HEK293, purified on Protein A
In experiment [4], B10 had a Kd of 124 nM, a koff of 0.00584 s⁻¹ and a kon of 47200 M⁻¹ s⁻¹.

B11: 61# (Fc fusion)
chain: HVQLVESGGGSVQAGGSLRLSCAASGYTYSSLCMGWFRQAPGKEREGVATIYTGDSSTYYADSVKGRFTISQDNAKNTVYLQMNSLKPEDTAMYYCAAAYGRRWCERLYMYDSWGQGTQVTVSS[omitted - human IgG1 Fc]
notes: as for B1
Consider B11, for which a half-maximal effect in experiment [2] (EC50) was put at 1.85 nM. In experiment [1], this molecule returned a Kd of 5.33 nM, a koff of 0.000819 s⁻¹ and a kon of 154000 M⁻¹ s⁻¹.

B12: 106# (Fc fusion)
chain: EVQLVESGGGSAQAGGSLRLSCTSSTYTFKNKCMGWFRQAPGKEREGVAVVDRFGGTIYAASVKGRFAISKDDAKNTLDLLMNSLKPEDTAMYYCAAGSYTSANSCQPDALWGQGTQVTVSS[omitted - human IgG1 Fc]
notes: as for B1
In experiment [2], B12 returned an EC50 of 2.56 nM. This molecule displayed an EC50 in experiment [3] of 0.67 nM. In experiment [1], the Kd was found to be 6.01 nM, the koff turned out to be 0.000477 s⁻¹ and the kon was 79400 M⁻¹ s⁻¹.

B13: 112# (Fc fusion)
chain: B12 chain with F54Y, T57I, P87A, A103D, N104G, Q117L
notes: as for B1
For B13, the EC50 amounted to 2.51 nM in experiment [2] and 1.5 nM in experiment [3].

B14: 32#_hu_3_hIgG4 (Fc fusion)
chain: EVQLVESGGGLVQPGGSLRLSCAASGFRYSPILMGWFRQAPGKDREGVSSIDSVGATDYADSVKGRFTISRDNSKNTLYLQMNSLRAEDTAVYYCAAALMRTYLPLQPRQYDFWGQGTLVTVSS[omitted - human IgG4 Fc with S228P (EU numbers)]
notes: Expressed in HEK293, purified on Protein A; also called 32#_hu_3_IgG4
Regarding B14, in experiment [4], the Kd is 19.2 nM, the koff was determined as 0.00201 s⁻¹ and the kon was determined as 105000 M⁻¹ s⁻¹.

B15: 0076#_hIgG4 (Fc fusion)
chain: EVQLVESGGGLVQPGGSLRLSCAASTYTFKDKCMGWFRQAPGKEREGVSVVDRFGGTIYADSVKGRFTISRDNSKNTLYLQMNSLRAEDTAVYYCAAGSYTSAGSCQPDALWGQGTLVTVSS[omitted - human IgG4 Fc with S228P (EU numbers)]
On to B15, for which, in experiment [5], the “解除PD-1/PD-L1阻断的免疫激活的IC50 (NFAT luciferase reporter, Jurkat-PD-1 with CHO-PD-L1 aAPC cells)” value came out at 14.2 nM.

B16: 0078#_hIgG4 (Fc fusion)
chain: B15 chain with G104H
notes: The text says 0078#
As to B16, the binding result in experiment [6] is reported as “binds”.

B17: 106#_hu_1_hIgG4 (Fc fusion)
chain: B15 chain with D31N, G104N
With B17, in experiment [4], the Kd came to 86.3 nM, the koff came to 0.000705 s⁻¹ and the kon amounted to 8170 M⁻¹ s⁻¹.

B18: 107#_hu_4_hIgG4 (Fc fusion)
chain: EVQLVESGGGLVQPGGSLRLSCAASGYTGNRRYCMGWFRQAPGKEREGVSVINTGANTTYYADSVKGRFTISRDNSKNTLYLQMNSLRAEDTAVYYCGVGWRALCEVNGYVYDSWGQGTLVTVSS[omitted - human IgG4 Fc with S228P (EU numbers)]
notes: as for B10
In experiment [4], B18 came in with a Kd of 128 nM, a koff of 0.0012 s⁻¹ and a kon of 9400 M⁻¹ s⁻¹.

These data come from patent CN114573704A (dated 2022).
